These results are taken from publication PMC7938106, “In vitro complex formation of human PYRIN domain-only protein 3 prevented by self-oligomerization of ASC PYD domain” (Saudi Journal of Biological Sciences, 2021).

This data set deals with the molecule itself. In words: SEC; each protein alone on Superdex 200 in 20 mM Tris-HCl pH 8.0, 150 mM NaCl.

B1: ASC PYD domain, […] (domain or fragment)
chain: not shown
notes: ASC (apoptosis-associated speck-like protein containing a CARD), human, N-terminal PYD domain, […]; The vector probably adds linker residues before the His6; also called ASCPYD ([…] aa); ASC-PYD-2
B1: the binding result is on record as “binds”.
